# The other results are listed elsewhere or left out.
# Target: no compound (DMSO)
# Assay: log2 fold change of degron read counts, EGFP-low vs EGFP+ sorted cells; higher = lower degron-EGFP level without compound (poor expression or instability)
# Conditions: compound: DMSO control; 18 h
# 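Note: jurkat cells carrying a lentiviral library of mutant zinc finger degrons fused to EGFP plus mCherry, mCherry+ cells FACS sorted, degron abundance counted by next-generation sequencing.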
row,Sequence,log2 fold change of degron read counts
1,FACPICGRNFTQKGNLLRHIKL,-0.353
2,FNCEICGRCFTQKGNLLRHIKL,-1.35
3,FICEVCGARFTQKGNLLRHIKL,-1.07
4,FWCPICGRNFTQKGNLLRHIKL,0.116
5,FECNQCGAVFTQKGNLLRHIKL,-1.57
6,FGCPVCGALFTQKGNLLRHIKL,-0.454
7,FRCEICGHKFTQKGNLLRHIKL,-0.961
8,FQCNQCGHMFTQKGNLLRHIKL,-0.469
9,FLCDQCGAAFTQKGNLLRHIKL,-1.11
10,FACDICGAEFTQKGNLLRHIKL,-1.41
11,FGCEICGHTFTQKGNLLRHIKL,-1.14
12,FQCSVCGHTFTQKGNLLRHIKL,-0.899
13,FICEQCGAPFTQKGNLLRHIKL,-1.48
14,FECPICGAEFTQKGNLLRHIKL,-0.648

# — the supplement of paper PMC12645437, “Orthogonal IMiD-Degron Pairs Induce Selective Protein Degradation in Cells” (ACS Chemical Biology, 2025)
